The campaign covered roughly 310,000 compounds. About 14,000 (4.5%) showed an effect of 50% or more. Effects have a minus sign here. Some of the results follow.
target: human ether-à-go-go-related gene (hERG) potassium channel (human, UniProt Q12809); assay: primary screen, population patch clamp on CHO cells stably expressing hERG
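Also: peak tail current of the secondary pulse compared with the same well before compound.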

human ether-à-go-go-related gene (hERG) potassium channel, sequence (Q12809 whole entry, looked up): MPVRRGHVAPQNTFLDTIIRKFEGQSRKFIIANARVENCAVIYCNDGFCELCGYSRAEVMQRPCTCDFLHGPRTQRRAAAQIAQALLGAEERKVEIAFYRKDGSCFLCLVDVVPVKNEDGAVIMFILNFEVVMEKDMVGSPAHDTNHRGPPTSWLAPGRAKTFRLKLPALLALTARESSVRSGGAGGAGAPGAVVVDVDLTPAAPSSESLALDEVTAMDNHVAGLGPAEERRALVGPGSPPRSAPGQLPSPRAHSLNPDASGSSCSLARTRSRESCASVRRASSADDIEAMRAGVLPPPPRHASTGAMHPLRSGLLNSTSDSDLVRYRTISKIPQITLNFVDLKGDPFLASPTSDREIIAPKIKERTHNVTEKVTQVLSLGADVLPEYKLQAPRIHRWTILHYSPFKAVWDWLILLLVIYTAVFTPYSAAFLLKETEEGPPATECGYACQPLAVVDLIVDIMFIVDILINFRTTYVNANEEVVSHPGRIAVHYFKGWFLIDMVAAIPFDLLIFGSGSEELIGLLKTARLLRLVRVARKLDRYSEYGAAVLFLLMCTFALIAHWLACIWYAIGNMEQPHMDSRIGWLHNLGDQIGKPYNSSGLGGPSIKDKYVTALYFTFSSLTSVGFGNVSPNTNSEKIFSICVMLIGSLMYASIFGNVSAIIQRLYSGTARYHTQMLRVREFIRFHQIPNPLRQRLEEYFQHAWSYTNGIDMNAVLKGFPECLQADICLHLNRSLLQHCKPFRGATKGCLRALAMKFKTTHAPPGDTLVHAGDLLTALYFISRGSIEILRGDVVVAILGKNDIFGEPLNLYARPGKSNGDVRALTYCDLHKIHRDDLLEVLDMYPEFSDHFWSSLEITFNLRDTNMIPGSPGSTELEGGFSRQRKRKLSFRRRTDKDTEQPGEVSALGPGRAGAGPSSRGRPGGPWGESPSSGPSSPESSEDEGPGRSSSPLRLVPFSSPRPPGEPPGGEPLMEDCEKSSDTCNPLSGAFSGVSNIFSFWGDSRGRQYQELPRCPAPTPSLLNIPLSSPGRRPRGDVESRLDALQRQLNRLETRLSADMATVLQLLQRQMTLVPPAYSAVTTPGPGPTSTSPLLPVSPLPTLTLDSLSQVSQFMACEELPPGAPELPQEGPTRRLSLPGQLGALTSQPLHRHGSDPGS

| Structure (SMILES) | hERG current change (%, negative = inhibition) at 10uM [%] |
| --- | --- |
| O=C(c1cccnc1Nc1ccccc1F)N1CCOCC1 | 11.7 |
| O=S(=O)(Nc1ncccn1)c1ccc(NC(=S)N2CCN(c3cccc(C(F)(F)F)c3)CC2)cc1 | 9.06 |
| Cc1ccc2oc(-c3cccc(NC(=S)NC(=O)/C=C/c4ccco4)c3)nc2c1 | 2.81 |
| CC(C)Cn1c(N)c(C(=O)COC(=O)[C@H](C)NC(=O)c2ccccc2Cl)c(=O)n(C)c1=O | -53.1 |
| O=C(c1ccco1)N1CCN(c2ccc(Cl)c(Cl)c2)CC1 | -29.7 |
| COc1cc(/C=N/NC(=O)c2cc(-c3cccn3C)n[nH]2)cc(OC)c1OC | -22.8 |
| c1ccc(Cn2c(CN3CCCC3)nc3ccccc32)cc1 | -64.6 |
| O=C(COc1coc(CN2CCc3ccccc32)cc1=O)Nc1ccccc1 | -24.7 |
| O=C(NCCCn1ccnc1)c1cc(-c2ccccc2)on1 | -16.3 |
| CCCCN(C)C(=O)C1CCCN(S(=O)(=O)c2ccc3c(c2)oc(=O)n3C)C1 (stereo not drawn) | -15.7 |
| O=C(c1coc2ccc(O)cc12)C1CC1 | 12.2 |
| Cc1cccc(/C=C2\CCC(=C3SCCCS3)C2=O)c1 | 5.8 |
| Cc1ccc(S(=O)(=O)N2CCOCC2)cc1NC(=O)CN1CCN(c2ccc(O)cc2)CC1 | -7.73 |
| CCCSc1nnc(CSc2nc(C)cc(C)n2)n1C | -6.94 |
| COc1cc2c(cc1OC)C1(Nc3c-2c(Cc2ccccc2)nn3-c2ccccc2)C(=O)Nc2ccccc21 (stereo not drawn) | 10.9 |
| CC(C)(C)C(=O)O/N=C1/C(=O)N(c2ccccc2)c2ccccc21 | 29.5 |
| Cc1ccccc1-n1cc(CNC(=O)C2CCC(=O)N(C3CC3)C2)cn1 (stereo not drawn) | 20.1 |
| COc1ccc(-c2csc(NC(=O)CC(C)C)n2)cc1 | -2.85 |
| Cc1cc(NC(=O)C2C3C=CC(C3)C2C(=O)O)no1 (stereo not drawn) | 13.3 |
| O=C1NCCc2c1[nH]c1ccc([N+](=O)[O-])cc21 | 4.49 |
| CC(NC(=O)/C(C#N)=C/c1ccc([N+](=O)[O-])o1)c1ccccc1 (stereo not drawn) | -4.19 |
| O=C(NCc1ccc2c(c1)OCO2)C(=O)NCC1OCCN1S(=O)(=O)c1ccc(Br)cc1 (stereo not drawn) | -17.4 |

| Structure (SMILES) | hERG current change (%, negative = inhibition) at 10uM [%] |
| --- | --- |
| COc1cc(NC(=O)CSc2nnnn2Cc2ccc3c(c2)OCO3)cc(OC)c1 | 6.19 |
| CC(=O)NCCC1CCCCN1Cc1nc(Cc2cccc(C(F)(F)F)c2)no1 (stereo not drawn) | 19.1 |
| CCOC(=O)c1c(NC(=O)CSc2nnc(-c3ccco3)o2)sc(C(C)=O)c1C | -1.1 |
| O=C(COc1cccc2ccccc12)N/N=C/c1ccncc1 | -8.71 |
| O=C(Nc1ccccc1C(=O)N/N=C/c1ccco1)c1ccc(F)cc1 | -37.7 |
| COc1ccccc1N1CCN(C2CCCN(C(=O)Cn3cccn3)C2)CC1 (stereo not drawn) | 4.39 |
| CC(CN1C(C)CCCC1C)OC(=O)c1cccc(Br)c1.Cl (stereo not drawn) | -36.2 |
| Cc1ccc(CCN2CC(C(=O)NCCCN3CCCCC3)CC2=O)cc1 (stereo not drawn) | -4.86 |
| CCC(CO)NCc1ccc(OC2CCCC2)cc1.Cl (stereo not drawn) | -8.07 |
| COc1nc(-c2ccccc2)cc(-c2ccc(OC)c(OC)c2)n1 | -3.56 |
| Cc1nc(SCC(=O)NC(=O)NCCC(C)C)c2c(-c3cccs3)csc2n1 | 22.4 |
| O=C(NCC(=O)N1CCN(S(=O)(=O)c2cccc(F)c2)CC1)c1ccc(Br)o1 | -32 |
| CC(C)CN1C=C2C(=O)C(C)(OC(=O)C3CCCC3)C(=O)C=C2C=C1c1ccsc1 (stereo not drawn) | -0.438 |
| COc1cc(C(=O)NCc2nnc(SCC(=O)c3ccccc3)o2)cc(OC)c1OC | -7.43 |
| COCCNC(=O)c1ccc(NS(=O)(=O)c2cc(C)ccc2C)cc1 | -9.06 |
| O=C(Nc1cc(C(F)(F)F)ccc1N1CCOCC1)c1cnccn1 | -2.15 |
| Cc1cccc(N2C(=O)NC(=O)/C(=C/c3ccc(-c4ccc(C(=O)O)c(Cl)c4)o3)C2=O)c1 | 17.3 |
| COC(=O)c1cn(CC(=O)NC2CCCCC2)c2ccccc12 | 2.59 |
| O=C(NC1CCCCC1)C(c1ccccc1)N(Cc1cccnc1)C(=O)c1csnn1 (stereo not drawn) | 3.92 |
| CCOC(=O)c1c(-n2c(C)cc(C=O)c2C)sc2c1CCCC2 | -5.53 |
| CC1(C)CN2C(=S)N(c3ccccc3)C(c3ccccc3)N2C1 (stereo not drawn) | -6.53 |
| COCCn1nnnc1C(c1ccccc1)N1CCN(Cc2ccc3c(c2)OCO3)CC1.Cl (stereo not drawn) | -21.6 |

| Structure (SMILES) | hERG current change (%, negative = inhibition) at 10uM [%] |
| --- | --- |
| O=C(CCSc1ccccc1)Nc1nc2c(s1)CCCC2 | 0.748 |
| COc1ccc(C(=O)Nn2c(SCC(=O)c3ccc(Cl)cc3)nc3ccccc3c2=O)cc1 | 2.5 |
| N#Cc1ccc(S(=O)(=O)N2CCC(C(=O)N3CCN(Cc4ccc5c(c4)OCO5)CC3)CC2)cc1 | -74.2 |
| Cc1ccc(S(=O)(=O)NCC(C)n2nc(C)cc2C)cc1 (stereo not drawn) | 16.9 |
| CCN(CC)c1ccc(C(=S)N2CCN(c3ccccc3)CC2)cc1 | 4.69 |
| COC(=O)c1cc(S(=O)(=O)NCCN2CCOCC2)cn1C | 2.78 |
| COc1ccc(CCN2CC(C(=O)N3CCSCC3)CCC2=O)cc1 (stereo not drawn) | -1.72 |
| Cc1cccc(OC(=O)N2CCOCC2)c1 | 6.87 |
| COc1cccc(/C=N/Nc2nc(N3CCCC3)nc(N3CCCC3)n2)c1O | 12.7 |
| C[C@H](NC(=O)c1nc[nH]c1C(=O)N1CCc2ccccc2C1)C(=O)OCc1ccccc1 | -13.1 |
| Cc1ccccc1S(=O)(=O)Cc1ccc(C(=O)N2CC(C)CC(C)C2)o1 (stereo not drawn) | -23 |
| Cc1ccc(C(=O)NCC(=O)OCC(=O)Nc2ncc(C(F)(F)F)cc2Cl)cc1 | -13.3 |
| O=C(CSc1nnc(-c2ccccc2)n1-c1ccc(Cl)cc1)NC1CCS(=O)(=O)C1 (stereo not drawn) | -15.2 |
| CCC(=O)N1CCc2cc(S(=O)(=O)NCCC(=O)NCc3ccccc3Cl)ccc21 | -1.91 |
| O=C(NCC1CCCO1)c1ccc(-c2cccc(C(F)(F)F)c2)o1 (stereo not drawn) | -16.2 |
| CCCn1c(SCC(=O)Nc2ccc(NC(=O)CC)cc2)nc2c1c(=O)n(C)c(=O)n2C | 15.7 |
| O=C1c2ccccc2C(=O)N1Cc1ccccn1 | 22.9 |
| COc1ccc(NC(=O)N2CCCC2C(=O)Nc2ccccc2)cc1 (stereo not drawn) | 10.9 |
| O=C(Cc1ccc(Cl)cc1Cl)Nc1ccncc1 | -0.174 |
| Cc1cccc(C(=O)NC(=S)Nc2ccc(N3CCOCC3)cc2)c1 | 14.1 |
| CCC(NC(=O)Cc1c(C)c2ccc(OC)c(C)c2oc1=O)C(=O)NC(Cc1ccc(Cl)cc1)C(=O)O (stereo not drawn) | -0.235 |
| Cc1cccc(N2CC(C(=O)Nc3nnc(SCC(=O)Nc4nccs4)s3)CC2=O)c1 (stereo not drawn) | 5.52 |

| Structure (SMILES) | hERG current change (%, negative = inhibition) at 10uM [%] |
| --- | --- |
| Cc1cc(-c2nnc(SCC(=O)Nc3ccccc3Cl)n2C)no1 | -5.89 |
| Cc1ccc2c(cnn2C(=O)CCC(=O)NC2CCCC2)c1 | -10.3 |
| COC(=O)[C@@]1(Cc2ccc(F)cc2)[C@H]2c3cc(C(=O)N(C)C)n(Cc4nc5ccccc5[nH]4)c3C[C@H]2CN1C(=O)c1ccccc1 | 1.29 |
| CN(C)C(CN=C1NS(=O)(=O)c2ccccc21)c1ccco1 (stereo not drawn) | 9.69 |
| CC(C)(C)c1ccc(C(=O)NC(=S)Nc2sc3c(c2C#N)CCC3)cc1 | 5.03 |
| Cc1cc(Nc2ncc(Cl)cc2Cl)n(-c2ccccc2C)n1 | -13.8 |
| O=C(Nc1cccc(Cl)c1)Nc1ccc2c(c1)OCO2 | -1.46 |
| CC1CCCC(NC(=O)CNC(=S)N2CC3CC(C2)c2cccc(=O)n2C3)C1C (stereo not drawn) | 23.3 |
| Cc1cc(C)n2cc(-c3ccc(Cl)cc3)c(C(=O)O)c2n1 | -50.9 |
| O=C1C(=C(c2ccccc2)c2ccccc2)Nc2ccccc21 | 5.34 |
| N#Cc1c(N2CCCC2)nsc1-c1ccccc1 | 14.5 |
| CCCc1cc(C(=O)NNC(=S)NCC2CCCO2)cs1 (stereo not drawn) | -1.58 |
| O=C1CC(=O)Nc2cc(S(=O)(=O)Nc3ccc(F)cc3Cl)ccc2N1 | -2.84 |
| Cc1cc(C)n(C(=O)Cn2nc(C(F)F)cc2C)n1 | 22.1 |
| c1ccc(-c2noc(CC3CCCCC3)n2)nc1 | 6.32 |
| CC1Cc2ccccc2N1CC(=O)Nc1ccc(S(N)(=O)=O)cc1 (stereo not drawn) | -6.21 |
| CC(NC(=O)c1ccccc1SCC(=O)N1CCCC1)c1ccc(F)cc1 (stereo not drawn) | 2.6 |
| Clc1ccccc1COc1ccccc1-c1nnco1 | 1.3 |
| Cc1cccc(CSCc2ccc(C(=O)NCC3CCCO3)o2)c1 (stereo not drawn) | -21.3 |
| O=C(O)c1cnn(-c2nc(-c3ccc(F)cc3)cs2)c1C(F)(F)F | 1.22 |
| Cc1ccc(C(=O)Nc2ccccc2C(=O)NC(C(=O)O)C(C)C)cc1 (stereo not drawn) | 0.929 |

Source: PMC4336329 (PLoS ONE, 2015)
